From PubChem BioAssay AID493208 (National Center for Advancing Translational Sciences (NCATS), 2011)
The campaign covered roughly 44,000 compounds. About 340 (0.77%) were called active. Inconclusive results (about 5%) are left out. The call rests on the fitted dose curve; in most records, active means well fitted inhibition curve with a large enough effect; inconclusive means small, poorly fitted or top-dose-only effect; inactive means flat fitted curve, though single readings scatter. This is one part of the list.

Experiment: Acumen qHTS Assay for Inhibitors of the mTORC1 Signaling Pathway in MEF (Tsc2-/-, p53-/-) Cells: Sytravon;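 further: plate controls were DMSO for no effect and rapamycin for full effect; nearly all actives have a fitted effect of over 50% in size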
Conditions: phospho-rpS6 immunofluorescence/PI, 24 h; series mostly up to 38.3 µM; activity change, negative = inhibition: at the top concentration
Procedure, shortened: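 Read-out: phospho-S6 Alexa-488 intensity over PI intensity per well, scored as % active cells using thresholds from rapamycin (7.5 nM) and DMSO controls. Tsc2-/-, p53-/- MEFs exposed to compound for 24 h; PI cell count recorded as viability.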

Activity change, negative = inhibition, inactive:
Cc1cc(C)cc(NC(=O)C2CCN(S(=O)(=O)c3cccc4nonc34)CC2)c1 -6.89%
CCc1ccc(CNC(=O)c2ccc(CSc3nc4ccncc4n3Cc3ccccc3)cc2)cc1 -9.83%
CCC(Oc1ccccc1)C(=O)Nc1nnc(S(=O)(=O)Nc2ccccc2)s1 (configuration not stated) 2.78%
COC(=O)CCc1sc(Nc2ccc(OC)cc2)nc1-c1ccc(OC)cc1 -3.37%
Cc1ccccc1NC(=O)CC1C(=O)NCCN1C(=O)c1cccc(Cl)c1 (configuration not stated) -7.25%
CC(=O)c1ccc(N2CCN(C(=O)NCc3noc4ccc(C)cc34)CC2)cc1 2.69%
Cc1noc(-c2ccccc2OCC(=O)Nc2cccc([N+](=O)[O-])c2)n1 -0.696%
CCOC(=O)C1CCCN(S(=O)(=O)c2ccc3[nH]c(=O)ccc3c2)C1 (configuration not stated) -24.6%
Cc1ccc(S(=O)(=O)NCc2nc3nc(C)cc(C)n3n2)c(C)c1 0.667%
CCN1c2ccccc2-c2nc(SCC(=O)Nc3ccc(C)c(Cl)c3)ncc2S1(=O)=O -0.202%
CCOC(=O)c1ccccc1NC(=O)CSc1nc2ncccc2[nH]1 1.86%
COc1ccc(-c2nnn3c2nc(N2CCCC(C)C2)c2ccccc23)cc1 (configuration not stated) -8.53%
Cc1ccc(C)c(N(C)C(=O)C2CCN(S(=O)(=O)c3cccc4nsnc34)CC2)c1 -25.9%
CC(=O)c1cc(C(=O)Nc2cccc(C)c2)c2ccccn12 -3.26%
COc1ccc(N2CCN(C(=O)CCS(=O)(=O)c3cc4c(cc3Cl)NC(=O)CO4)CC2)cc1 7.13%
CCOC(=O)c1ccc(NC(=O)CC2C(=O)N(c3ccccc3)C(=O)N2Cc2cccs2)cc1 (configuration not stated) 0.352%
Cc1ccc(S(=O)(=O)c2[nH]c(-c3ccccc3)nc2SCC(=O)O)cc1 -0.85%
COc1ccc(N2CCN(CC(O)COc3ccc(C(C)(C)C)cc3)CC2)cc1 (configuration not stated) 2.04%
CCOc1ccc(CNC(=O)c2ccc3nc(Cc4ccc(OC)cc4)oc3c2)cc1OC 2.85%
CCN(C(=O)Cc1c(C(=O)O)[nH]c2ccccc12)c1ccc(OC)cc1 6.47%
CCc1ccc(CN(C(=O)c2nc(SC)ncc2Cl)C2CCS(=O)(=O)C2)cc1 (configuration not stated) -2.89%
CCC(=O)N1c2ccccc2CC1C(=O)N1CCN(c2ccccc2)CC1 (configuration not stated) 0%
Cc1ccc(Cl)cc1NC(=O)c1ccc(-c2nc(CSc3ccccc3)c(C)o2)cc1 -9.32%
CC(C)Cc1nn2c(=O)cc(COC(=O)c3ccc(NC(=O)c4cccs4)cc3)nc2s1 22.2%
CC(=O)c1ccc(N2CCN(C(=O)C3CCN(S(=O)(=O)c4cccc5nonc45)CC3)CC2)cc1 0.379%
O=S(=O)(NCCc1csc(-c2ccc(F)cc2)n1)c1ccc(Cl)cc1 -14.8%
O=c1c2c3c(sc2nnn1Cc1ccc(Br)cc1)CCCC3 2.48%
CCOc1ccccc1NC(=O)Cn1c(=O)ccc2cc(S(=O)(=O)N3CCC(C)CC3)ccc21 -0.903%
CCOC(=O)c1ccc(NC(=O)CCc2c(C)nc3c(c(C)nn3C)c2C)cc1 -0.94%
Cc1ccc(OCCCn2c(C3CC(=O)N(c4cccc(Cl)c4)C3)nc3ccccc32)c(C)c1 (configuration not stated) 0.559%
CCOC(=O)C1CCN(C(=O)C2COc3ccccc3C2)CC1 (configuration not stated) -3.6%
O=C(c1cc2ccccc2oc1=O)N(Cc1cccc(Cl)c1)C1CCS(=O)(=O)C1 (configuration not stated) 1.42%
Cc1ccc(CN2CCSc3ccc(C(=O)N4CCN(c5cccc(C)c5C)CC4)cc32)cc1 -2.03%
O=C(CSc1nccn1Cc1ccc(Cl)cc1)NC1CCCC1 -7.17%
COc1ccc(-c2cnc(C)o2)cc1S(=O)(=O)Nc1ccc(C)c(F)c1 1.92%
COc1cccc(-n2ccnc2SCC(=O)Nc2cccc(C)c2C)c1 -3.4%
CCc1ccc(NC(=O)Cn2cnc3sc(C)c(S(=O)(=O)N4CCC(C)CC4)c3c2=O)cc1 -1.89%
CCCC(=O)NCC(c1ccc2c(c1)OCO2)N1CCN(c2ccc(F)cc2)CC1 (configuration not stated) -7.29%
COc1ccc(-c2nc3c(C#N)c[nH]n3c2NC2CCCCC2)c(OC)c1 -10.1%
COc1ccc(-n2ncc(C(=O)NCc3ccccc3)c2C2CCN(C(=O)OC(C)(C)C)CC2)cc1 -3.86%
Cc1ccc(OCc2nc3ccccc3n2CC(C)C)cc1 -7.49%
COc1ccc(CCNC(=O)CCn2c(=O)c3cccn3c3ccc(F)cc32)c(OC)c1OC -0.265%
CCOc1ccccc1CNC(=O)Nc1cn(CC(C)C)c(=O)c2ccccc12 -0.0544%
CC(Oc1ccccc1)C(=O)Nc1nc2ccc(S(N)(=O)=O)cc2s1 (configuration not stated) 0.816%
Cc1cc2c(cc1S(=O)(=O)NCc1ccc(N(C)C)cc1)OCC(=O)N2 -0.557%
CCCN(C(=O)c1cc2c(s1)-c1ccccc1SC2)c1ccccc1F 1.84%
COc1ccc(N(CC(=O)NC(C)c2ccccc2)S(=O)(=O)c2c(C)noc2C)cc1 (configuration not stated) -2.21%
CC1(c2ccc(Cl)cc2)CC(C)(C)N(C(=O)c2ccccc2)c2ccccc21 (configuration not stated) -0.763%
Cc1ccc(CN2CCC(CNc3ncnc4onc(-c5ccc(Cl)cc5)c34)CC2)cc1 5.03%
CCOC(=O)c1noc2ncnc(N3CCN(c4ccccc4OC)CC3)c12 11.9%
CCOC(=O)c1c(C)c(-c2ccccc2)n(CC(=O)Nc2cc(OC)cc(OC)c2)c1C -3.92%
COc1cc(C2NC(=O)NC(C)=C2C(=O)Nc2cc(C)cc(C)c2)ccc1O (configuration not stated) -7.58%
CC(C)(C)NS(=O)(=O)c1ccc2nc(NC(=O)c3cccnc3)sc2c1 0.0901%
COC(=O)CNC(=O)Nc1cc(C(=O)NCc2ccc(C)cc2)ccc1N1CCCC1 6.97%
CC(=O)N1c2ccccc2CC1C(=O)N1CCN(c2ccc(F)cc2)CC1 (configuration not stated) 14%
COc1ccc(C)cc1NC(=O)c1oc2ccc(S(=O)(=O)N(C)C3CCCCC3)cc2c1C 6.03%
COC(=O)C1CCN(S(=O)(=O)c2cc3c4c(c2)C(C)C(=O)N4CCC3)CC1 (configuration not stated) -13.3%
CC(C)(C)c1cc(C(C)(C)C)c2oc(=O)c(-c3nc4ccccc4[nH]3)cc2c1 5.26%
O=C(CSc1nc2ccccc2c2nc(-c3ccccc3)nn12)Nc1ccc(Br)cc1 1.17%
CCc1cc(C(=O)Nc2c(C)nn(Cc3ccc(C)cc3)c2C)no1 -14.7%
Cc1ccc(Cn2c(SCC(=O)NCc3ccc(Cl)cc3)nc3ccsc3c2=O)cc1 3.46%
Cc1ccc(NC(=O)CN2CCCN(Cc3cc(C)ccc3C)S2(=O)=O)c(Cl)c1 0%
COc1cccc(N2CCN(C(=O)C3CCC(CNS(=O)(=O)c4ccc(Br)s4)CC3)CC2)c1 (configuration not stated) -6.03%
CCS(=O)(=O)N1CC(=O)N(c2ccccc2C)C(C)(C(=O)NC2CCCCC2)C1 (configuration not stated) 0.643%
COCCCNC(=O)Cn1c(=O)n(-c2ccc(C)cc2)c(=O)c2c1c1cc(C)ccc1n2C 1.22%
Cc1ccc(Cl)cc1N1CCN(C(=O)c2cn(C3CCCCC3)c(=O)c3c2c2ccccc2n3C)CC1 -21.9%
COc1ccc(NC(=O)CSc2nnc(-c3ccc(C)cc3)o2)cc1 -4.39%
CN(C)c1ccc(C(CNC(=O)COc2ccc(Cl)cc2)N2CCOCC2)cc1 (configuration not stated) 18.6%
COc1cccc(-c2nc3c(c(SCc4ccccc4)n2)Cc2c(CO)cnc(C)c2O3)c1 -7.8%
NC(=O)c1cc(S(=O)(=O)NCc2ccccc2)cs1 -6.37%
CN(C(=O)CCNC(=O)Cn1cnc2ccccc2c1=O)c1ccccc1F 3.22%
CCCn1c(=O)n(-c2ccccc2)c(=O)c2sc3ccccc3c21 2.34%
CCOc1ccc(CCNC(=O)CN2CCN(Cc3ccc(F)cc3Cl)C2=O)cc1OCC 1.06%
C=CCc1c(C)nc2nc(SCC(=O)Nc3ccccc3CC)nn2c1C 9.96%
CCCOc1ccccc1C(=O)N1CCC(c2nc3ccccc3s2)CC1 -2.04%
CCOC(=O)CSc1nc2cc3c(cc2c(=O)n1CCCC(=O)NCc1ccc2c(c1)OCO2)OCO3 0.167%
COC(=O)CN1C(=O)CSc2ccc(S(=O)(=O)Nc3ccc(Cl)cc3C)cc21 0.0211%
Cc1ccc2ccc(C(Nc3ccccn3)c3ccccc3)c(O)c2n1 (configuration not stated) -7.2%
CC(C)Cc1nn2c(=O)cc(COC(=O)c3cccc(NC(=O)CCc4ccccc4)c3)nc2s1 0%
C=Cc1ccc(CSc2nc(-c3ccc(OC)cc3)nc3c2Cc2c(CO)cnc(C)c2O3)cc1 -3.33%
NCCc1nnc(SCc2ccc(Cl)cc2)o1 15.2%
Clc1ccc(CCNc2ncnc3c2c(-c2ccccc2)cn3-c2ccccc2)cc1 12.3%
COc1ccc(C(=O)CN2C(=O)N(c3cc(C)cc(C)c3)S(=O)(=O)c3ccccc32)cc1 -3.9%
COc1ccccc1CNC(=O)Cn1ncc2c(=O)oc3ccc(C)cc3c21 -15.2%
Cc1ccc(Nc2c(-c3ccc(C)cc3)nc3cnccn23)cc1 -9.48%
CCCCC(=O)Nc1cccc(OCc2cc(=O)n3ccccc3n2)c1 8.45%
COc1cc(C(=O)Nc2cc(C)ccc2OCc2cc(=O)n3cc(C)sc3n2)cc(OC)c1OC 5.17%
Cc1ccccc1CS(=O)(=O)Cc1ccc(C(=O)NCCc2ccccc2)o1 7.91%
CCOC(=O)c1ccc(Nc2c(-c3ccc(O)cc3)nc3nc[nH]n23)cc1 -8.59%
Cc1ccc(NC(=O)CSc2nc3c(c(=O)[nH]2)CN(Cc2ccc4c(c2)OCO4)CC3)cc1C -0.506%
Cn1c(=O)c2c(SCC(=O)NCc3ccco3)nc(-c3ccccc3Cl)nc2n(C)c1=O 6.42%
CCOC(=O)c1ccc(NC(=O)c2oc3ccc4c(c3c2C)C(=O)CC(C)(CC)O4)cc1 (configuration not stated) -5.74%
CCOC(=O)C1CCCN(c2ncnc3c2cnn3-c2ccc(C)c(Cl)c2)C1 (configuration not stated) 3.92%
CC(=O)Nc1c(C)nn(-c2ccccc2)c1N1CCC(C(=O)Nc2cc(Cl)ccc2C)CC1 -6.24%
CCc1ccccc1NC(=O)c1cc(S(=O)(=O)NCCc2ccc(OC)c(OC)c2)ccc1F 0.709%
Cc1nc2c(-c3ccccc3)c(C)nn2c(C)c1CCC(=O)NCc1cccc(Cl)c1 1.29%
CCOc1ccc(NC(=O)C(C)Sc2nnc3cc(C)c4ccccc4n23)cc1 (configuration not stated) -11.6%
